In PubChem BioAssay AID686971 (National Center for Advancing Translational Sciences (NCATS), 2013):
Screen size: about 360,000 compounds; about 7,500 (2.1%) were called active. The shares of active, inactive and inconclusive entries below differ from those in the screen. Calls come from the whole dose curve; as a rule, active = well fitted cell-killing curve with a large enough effect; inconclusive = small, poorly fitted or top-dose-only effect, or effect the other way, or another doubt; inactive = no such curve, though single readings can be large or run the other way. No potency is given beside an inconclusive call; the fits are too rough.
Potency is the fitted concentration of half-maximal effect; tags give direction and shape of the fitted curve.

Assay: qHTS for induction of synthetic lethality in tumor cells producing 2HG: qHTS for the HT-1080-IDH1KD cell line
Conditions: HT-1080 IDH1 knockdown viability, ATP luminescence, 48 h; series mostly up to 46.1 µM
How it was run: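 CellTiter-Glo luminescence after 48 h compound exposure at 37 degrees C of IDH1-knockdown HT-1080 cells in 5% FBS RPMI. %Activity scaled between DMSO wells and cell-free media wells, with curves fitted and assigned curve classes.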
For `O=C(Nc1cccc(C(F)(F)F)c1)C(Sc1ncnc2ccccc12)c1ccccc1` (centres undefined), the Potency was “inactive”.
In the case of `Cc1ccccc1-c1cnc(C(O)c2ccc(-c3ccccc3)cc2)[nH]1` (centres undefined), the Potency is reported as inconclusive [cytotoxic, single point].
In the case of `CCOC(=O)c1ccc(Nc2cc(C)nc(N3CCOCC3)n2)cc1`, the Potency is reported as inconclusive [cytotoxic, single point].
With `CCOC(=O)c1c(NC(=O)CN2CCCCC2)sc(CN(C)C)c1-c1ccccc1` the Potency was “inactive”.
For `CC(C)(C)c1ccc(OCCC(=O)Nc2cccc(S(=O)(=O)N3CCCCC3)c2)cc1`, the Potency was inconclusive [cytotoxic, partial curve].
In the case of `Cc1cccc(C)c1Cn1c(C)c(C(=O)NCc2ccc([N+](=O)[O-])cc2)sc1=O`, the Potency is reported as inconclusive [cytotoxic, single point].
With `Cn1c(-c2ccccc2[N+](=O)[O-])[n+](C)c2ccccc21` the Potency was inconclusive [cytotoxic, single point].
With `O=C(C1CCCN(S(=O)(=O)c2cc(Cl)ccc2Cl)C1)N1CCCC1` (centres undefined) the Potency was “inactive”.
For `NC(=O)C(c1ccc(Cl)cc1)c1ncc(C(F)(F)F)cc1Cl` (centres undefined), the Potency was inconclusive [rising, single point].
In the case of `COc1ccc(C(CNC(=O)c2ccc(-c3ccccc3Cl)o2)N2CCCC2)cc1` (centres undefined), the Potency is reported as inconclusive [cytotoxic, single point].
In the case of `COc1cccc(Nc2nc(C(N)Cc3ccc(F)cc3)cs2)n1` (centres undefined), the Potency is reported as active: 14.6 µM.
For `CCC1(O)CC(c2ccccc2)=NN1C(=O)c1ccccc1F` (centres undefined), the Potency was “inactive”.
In the case of `CCCN(C(=O)c1cccs1)c1c(N)n(Cc2ccccc2)c(=O)[nH]c1=O`, the Potency is reported as “inactive”.
In the case of `COc1ccc(Cc2nc(C(=O)Nc3ccc(OC)cc3)cs2)cc1`, the Potency is reported as inconclusive [cytotoxic, partial curve].
With `C=CCOC(=O)C1=C[C@@H](c2ccccc2)[C@H](CCCO)[C@@H](OCC)O1` the Potency was inconclusive [cytotoxic, partial curve, poor fit].
With `C=C1[C@@H](O)[C@H](CC(C)C)N(Cc2ccccc2Br)S1(=O)=O` the Potency was inconclusive [cytotoxic, single point].
With `O=[N+]([O-])c1ccc(Sc2nnnn2-c2ccccc2)c(Cl)c1` the Potency was active: 10 µM.
In the case of `Cc1nc(C(F)(F)F)ccc1C(=O)N1CCC1(C)C(=O)NS(C)(=O)=O` (centres undefined), the Potency is reported as “inactive”.
With `COc1ccc(NC(=O)c2ccc(NC(=O)CSc3nccc(=O)[nH]3)cc2)cc1` the Potency was “inactive”.
For `C/C(=N\Nc1nc2ccccc2s1)c1ccc(Br)s1`, the Potency was inconclusive [cytotoxic, single point].
With `Cn1c(=O)c2sccc2n(Cc2ccccc2)c1=O` the Potency was “inactive”.
In the case of `O=C(O)c1ccc(/C=N/Nc2ccc(F)cc2F)cc1`, the Potency is reported as active: 5.17 µM.
In the case of `CN1CCN(C2=C(NS(=O)(=O)c3cccs3)C(=O)c3ccccc3C2=O)CC1`, the Potency is reported as inconclusive [cytotoxic, partial curve].
In the case of `Clc1ccc(-c2[nH]ncc2N=Nc2ccccc2)cc1`, the Potency is reported as inconclusive [cytotoxic, single point].
In the case of `CC(=O)N1CCN(c2ccc(NC(=O)c3ccc([N+](=O)[O-])o3)cc2Cl)CC1`, the Potency is reported as active: 6.51 µM.
For `CCCc1cc(-c2n[nH]c(=S)n2CC(C)C)cs1`, the Potency was “inactive”.
For `CC(C)(C)c1ccc(Oc2ccc(NC(=O)c3ccco3)cn2)cc1`, the Potency was active: 7.31 µM.
With `CC1CC(C)(C)CC2(C1)NC(=O)N(CC(=O)N1CCN(Cc3ccc(C#N)cc3)CC1)C2=O` (centres undefined) the Potency was inconclusive [cytotoxic, single point].
In the case of `CC(C)=CCC12Oc3cc(O)ccc3C1(O)Oc1cc(O)c([C@H]3C=C(C)CC(c4ccc(O)cc4O)[C@H]3C(=O)c3ccc(O)cc3O)c(O)c1C2=O` (some centres undefined), the Potency is reported as inconclusive [cytotoxic, single point].
In the case of `CC(C)(C)c1ccc(OCc2ccc(C(=O)N3CCOCC3)o2)cc1`, the Potency is reported as inconclusive [cytotoxic, single point].
With `CCCSc1nc(C)cc(C)c1S(=O)(=O)c1ccccc1C` the Potency was “inactive”.
In the case of `Cc1ccc(-n2cc(CN(C)Cc3ncc[nH]3)c(-c3cccc(C)c3)n2)cc1`, the Potency is reported as active: 18.4 µM.
For `CCn1c2ccccc2c2cc(/C=N/NC(=O)c3ccncc3)ccc21`, the Potency was inconclusive [cytotoxic, single point].
For `CCOc1ccc(CCNC(=O)CS(=O)(=O)Cc2nc(-c3cccc(OC)c3)oc2C)cc1`, the Potency was inconclusive [cytotoxic, single point].
With `O=C(CCl)NCc1c(Cl)cccc1-n1cccc1` the Potency was active: 10 µM.
For `COC(=O)CNC(c1ccccc1)c1cc(Br)ccc1N` (centres undefined), the Potency was “inactive”.
In the case of `COc1cc(-c2coc3c(C(=O)NCc4ccccc4)cccc23)ccc1O`, the Potency is reported as inconclusive [cytotoxic, partial curve].
In the case of `O=C1N=C(N2CCCCC2)SC1=C1CCCC1`, the Potency is reported as “inactive”.
With `COc1ccc(CCNC(=O)C2CCC(=O)N(C3CC3)C2)c(OC)c1` (centres undefined) the Potency was “inactive”.
With `Cc1cccc(C(=O)N[C@H](C(=O)Nc2nc3ccccc3[nH]2)C(C)C)c1` the Potency was active: 5.8 µM.
With `C=CC1=CCN(S(=O)C(C)(C)C)[C@@H]1CCO` (some centres undefined) the Potency was “inactive”.
For `COc1cc(/C(C)=N/NC(=O)c2nnn(-c3nonc3N)c2-c2cccs2)ccc1O`, the Potency was “inactive”.
In the case of `COc1ccc2nc(C)cc(Sc3nc4ccccc4s3)c2c1`, the Potency is reported as active: 23.1 µM.
In the case of `CC1CN(S(=O)(=O)c2ccc(C(=O)NCCCn3ccnc3)cc2)CC(C)O1` (centres undefined), the Potency is reported as active: 1.84 µM.
For `COc1cc(SC)ccc1C(=O)N(CC(=O)Nc1ccccc1Br)Cc1ccco1`, the Potency was “inactive”.
In the case of `O=C(NCc1ccccc1OC(F)(F)F)C1CCC(=O)N(Cc2ccccn2)C1` (centres undefined), the Potency is reported as “inactive”.
With `COc1ccc(-c2nn(C)c(=O)c3ccccc23)cc1NC(=O)COc1ccc(C)cc1` the Potency was “inactive”.
For `CC(O)(c1ccc(F)c(F)c1)c1nc(-c2cnc3ccccc3c2)cs1` (centres undefined), the Potency was inconclusive [cytotoxic, single point].
With `CC(C)CN(C(=O)COC(=O)Cc1ccc(Cl)cc1)c1c(N)n(Cc2ccccc2)c(=O)[nH]c1=O` the Potency was active: 23.1 µM.
